Laboratory results from ChEMBL document CHEMBL4888484, “Replenishing the malaria drug discovery pipeline: Screening and hit evaluation of the MMV Hit Generation Library 1 (HGL1) against asexual blood stage Plasmodium falciparum ,using a nano luciferase reporter read-out” (2022).
Screen size: about 150,000 compounds; about 540 (0.36%) showed an effect of 50% or more. Some of the results follow.

Tested on: Plasmodium falciparum
Assay: Primary screen in NF54 nanoGlo assay, in single point, at 2uM, 72h; a lower Z score goes with more inhibition
Assay type: functional, Erythrocyte
Settings: timepoint 72 hour

Structure (SMILES) | % Inhibition | Z score
COC[C@@H](c1ccnn1C)n1cnc2c(F)cccc2c1=O | 3% | -0.54
O=C(O)[C@@H]1C[C@@H](O)CN1c1nc2ccc(Cl)cc2s1 | -9% | 1.35
Cc1cccc(NC(c2ccc(F)cc2)C2CCCC2=O)c1 (centres undefined) | 1% | -0.26
COc1cccc(C(=O)N2CCOC[C@H](OC)C2)c1 | 6% | -0.74
CC(=O)c1sc(NC(=O)[C@H](C)n2nc(C3CC3)ccc2=O)nc1C | 8% | -1.03
CCN(Cc1ccnc(OC)c1)[C@H]1CCS(=O)(=O)C1 | -11% | 2.11
Nc1c(C(=O)Nc2cccc(F)c2)sc(=S)n1C[C@H]1CCCO1 | -4% | 0.56
O=C(O)c1ccc(CNC(=O)C2(c3c(F)cccc3F)CCC2)o1 | -12% | 1.48
COc1ccc(CN2CCN(c3nn4cc(C)nc4s3)CC2)cc1 | -10% | 0.87
COc1cccc(CNC(=O)Cn2c(C)c(Cc3ccccc3)c(=O)n3nc(-c4ccccc4)nc23)c1 | 2% | -0.22
C[C@H]1CNC(=O)CCN1C(=O)Cc1cccnc1 | -5% | 0.71
CCN1CCn2cc(CNC(=O)c3noc(C)c3COc3ccccc3)nc2C1=O | -1% | 0.18
COc1ccc(NC(=O)[C@@H](C)C2CCOCC2)cc1 | 37% | -5.31
CCc1ncc(S(=O)(=O)N2CCCc3ccc(C)c(F)c32)s1 | -19% | 3.66
O=C1C[C@H](Nc2ccc3c(c2)OCO3)C(=O)N1CCc1ccccc1F | -4% | 0.63
CC(C)Cn1nccc1C(=O)Nc1cc(Cl)ccc1-c1nnn[nH]1 | -6% | 0.74
CCc1ncnc(N2CCC(CCCn3ccnc3)CC2)c1F | 4% | -0.47
